# Assay results as given in the supplement of paper PMC8728848.
# This is one part of the list.
# B1: FliD (Clostridium difficile) (protein)
# chain: MSSISPVRVTGLSGNFDMEGIIEASMIRDKEKVNKAKQDQQIVKWKQEIYRDIIKESKNLYDKYLNGDSPNSITNKKAYSATRITSSDESIIVAKGSAGAEKINYQFAVSQMAEPAKVTIKLNSSDPIVQQFPPNASGASSLNIGGVNIPISEQDTTSTIVSKINSLCADNDIRASYSEMTGELIISRKQTGSSSDIDLKVIGNDSLAGQIASDNGITFTTDASGTKSAVVYGKNLEADVTDDQGRVTHISKEQNSFKIDNIDYNVNSKGSAKLVSVTDTEEATKNMKAFVDDYNALMDKVYGLVTTKKSKDYPPLTDEQKDDMTTEEIEKWEKKAKEGILRNDDELRAFVEDIQSMFFGDADTIIALRKLGISEHENYNKKGQISFNADTFSKALIDDSDKVYKALAGYSSNYDDKGMFEKLKKIVFEYSGSSASKLTKKAGMENSSSASQNVYSKQIAEQERNISRLVEKMNDKEKRLYAKYSALESLLNKYSSQMNYFSQAQGN
# Tests used:
# Assay in all cases: glycan array binding signal (z-score within array); higher = stronger binding
# Details in all cases: glycan notation: IUPAC condensed, linker removed
# [1] = biological target: Neu5Ac(a2-3)Gal(b1-4)GlcNAc
# Summary of the method: (§1)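 Glycan array data were curated from 3228 arrays in the Consortium for Functional Glycomics database and kept only where the protein sequence was available. Glycan names were converted to IUPAC-condensed notation, and columns mapping to the same glycan were averaged. The binding signal is a within-array Z-score, averaged across arrays of the same protein sequence at different concentrations or buffers and across linkers. Negative Z-scores can be read as non-binding.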
# [2] = biological target: Neu5Ac(a2-3)Gal(b1-4)GlcNAc(b1-2)Man
# Summary of the method: as §1
# [3] = biological target: Neu5Ac(a2-3)Gal(b1-4)GlcNAc(b1-2)Man(a1-3)[GlcNAc(b1-4)][Neu5Ac(a2-3)Gal(b1-4)GlcNAc(b1-2)Man(a1-6)]Man(b1-4)GlcNAc(b1-4)GlcNAc
# Summary of the method: as §1
# [4] = biological target: Neu5Ac(a2-3)Gal(b1-4)GlcNAc(b1-2)Man(a1-3)[Neu5Ac(a2-3)Gal(b1-4)GlcNAc(b1-2)Man(a1-6)]Man(b1-4)GlcNAc(b1-4)GlcNAc
# Summary of the method: as §1
# [5] = biological target: Neu5Ac(a2-3)Gal(b1-4)GlcNAc(b1-2)Man(a1-3)[Neu5Ac(a2-3)Gal(b1-4)GlcNAc(b1-2)Man(a1-6)]Man(b1-4)GlcNAc(b1-4)[Fuc(a1-6)]GlcNAc
# Summary of the method: as §1
# [6] = biological target: Neu5Ac(a2-3)Gal(b1-4)GlcNAc(b1-2)Man(a1-3)[Neu5Ac(a2-6)Gal(b1-4)GlcNAc(b1-2)Man(a1-6)]Man(b1-4)GlcNAc(b1-4)GlcNAc
# Summary of the method: as §1
# [7] = biological target: Neu5Ac(a2-3)Gal(b1-4)GlcNAc(b1-2)[Neu5Ac(a2-3)Gal(b1-4)GlcNAc(b1-4)]Man(a1-3)[GlcNAc(b1-4)][Neu5Ac(a2-3)Gal(b1-4)GlcNAc(b1-2)[Neu5Ac(a2-3)Gal(b1-4)GlcNAc(b1-6)]Man(a1-6)]Man(b1-4)GlcNAc(b1-4)GlcNAc
# Summary of the method: as §1
# [8] = biological target: Neu5Ac(a2-3)Gal(b1-4)GlcNAc(b1-2)[Neu5Ac(a2-3)Gal(b1-4)GlcNAc(b1-4)]Man(a1-3)[GlcNAc(b1-4)][Neu5Ac(a2-3)Gal(b1-4)GlcNAc(b1-4)Man(a1-6)]Man(b1-4)GlcNAc(b1-4)GlcNAc
# Summary of the method: as §1
# [9] = biological target: Neu5Ac(a2-3)Gal(b1-4)GlcNAc(b1-2)[Neu5Ac(a2-3)Gal(b1-4)GlcNAc(b1-6)]Man(a1-6)[Neu5Ac(a2-3)Gal(b1-4)GlcNAc(b1-2)Man(a1-3)]Man(b1-4)GlcNAc(b1-4)GlcNAc
# Summary of the method: as §1
# [10] = biological target: Neu5Ac(a2-3)Gal(b1-4)GlcNAc(b1-2)[Neu5Ac(a2-3)Gal(b1-4)GlcNAc(b1-6)]Man(a1-6)[Neu5Ac(a2-3)Gal(b1-4)GlcNAc(b1-2)Man(a1-3)][GlcNAc(b1-4)]Man(b1-4)GlcNAc(b1-4)GlcNAc
# Summary of the method: as §1
# [11] = biological target: Neu5Ac(a2-3)Gal(b1-4)GlcNAc(b1-3)Gal
# Summary of the method: as §1
# [12] = biological target: Neu5Ac(a2-3)Gal(b1-4)GlcNAc(b1-3)Gal(b1-3)GlcNAc
# Summary of the method: as §1
# [13] = biological target: Neu5Ac(a2-3)Gal(b1-4)GlcNAc(b1-3)Gal(b1-4)GlcNAc
# Summary of the method: as §1
# [14] = biological target: Neu5Ac(a2-3)Gal(b1-4)GlcNAc(b1-3)Gal(b1-4)GlcNAc(b1-2)Man(a1-3)[Neu5Ac(a2-3)Gal(b1-4)GlcNAc(b1-3)Gal(b1-4)GlcNAc(b1-2)Man(a1-6)]Man(b1-4)GlcNAc(b1-4)GlcNAc
# Summary of the method: as §1
# [15] = biological target: Neu5Ac(a2-3)Gal(b1-4)GlcNAc(b1-3)Gal(b1-4)GlcNAc(b1-3)Gal(b1-4)GlcNAc
# Summary of the method: as §1
# [16] = biological target: Neu5Ac(a2-3)Gal(b1-4)GlcNAc(b1-3)Gal(b1-4)GlcNAc(b1-3)Gal(b1-4)GlcNAc(b1-2)Man(a1-3)[Neu5Ac(a2-3)Gal(b1-4)GlcNAc(b1-3)Gal(b1-4)GlcNAc(b1-3)Gal(b1-4)GlcNAc(b1-2)Man(a1-6)]GalNAc
# Summary of the method: as §1
# [17] = biological target: Neu5Ac(a2-3)Gal(b1-4)GlcNAc(b1-3)Gal(b1-4)GlcNAc(b1-3)GalNAc
# Summary of the method: as §1
# [18] = biological target: Neu5Ac(a2-3)Gal(b1-4)GlcNAc(b1-3)Gal(b1-4)GlcNAc(b1-3)[Neu5Ac(a2-3)Gal(b1-4)GlcNAc(b1-3)Gal(b1-4)GlcNAc(b1-6)]GalNAc
# Summary of the method: as §1
# [19] = biological target: Neu5Ac(a2-3)Gal(b1-4)GlcNAc(b1-3)Gal(b1-4)GlcNAc(b1-6)[Gal(b1-3)]GalNAc
# Summary of the method: as §1
# [20] = biological target: Neu5Ac(a2-3)Gal(b1-4)GlcNAc(b1-3)Gal(b1-4)[Fuc(a1-3)]GlcNAc
# Summary of the method: as §1
# [21] = biological target: Neu5Ac(a2-3)Gal(b1-4)GlcNAc(b1-3)GalNAc
# Summary of the method: as §1
# [22] = biological target: Neu5Ac(a2-3)Gal(b1-4)GlcNAc(b1-3)[Neu5Ac(a2-3)Gal(b1-4)GlcNAc(b1-6)]GalNAc
# Summary of the method: as §1
# [23] = biological target: Neu5Ac(a2-3)Gal(b1-4)GlcNAc(b1-6)GalNAc
# Summary of the method: as §1
# [24] = biological target: Neu5Ac(a2-3)Gal(b1-4)GlcNAc(b1-6)[Gal(b1-3)]GalNAc
# Summary of the method: as §1
# [25] = biological target: Neu5Ac(a2-3)Gal(b1-4)GlcNAc(b1-6)[Neu5Ac(a2-3)Gal(b1-3)]GalNAc
# Summary of the method: as §1
# [26] = biological target: Neu5Ac(a2-3)Gal(b1-4)GlcNAc6S
# Summary of the method: as §1
# [27] = biological target: Neu5Ac(a2-3)Gal(b1-4)[Fuc(a1-3)]GlcNAc
# Summary of the method: as §1
# [28] = biological target: Neu5Ac(a2-3)Gal(b1-4)[Fuc(a1-3)]GlcNAc(b1-2)Man
# Summary of the method: as §1
# [29] = biological target: Neu5Ac(a2-3)Gal(b1-4)[Fuc(a1-3)]GlcNAc(b1-3)Gal
# Summary of the method: as §1
# [30] = biological target: Neu5Ac(a2-3)Gal(b1-4)[Fuc(a1-3)]GlcNAc(b1-3)Gal(b1-4)GlcNAc
# Summary of the method: as §1
# [31] = biological target: Neu5Ac(a2-3)Gal(b1-4)[Fuc(a1-3)]GlcNAc(b1-3)Gal(b1-4)[Fuc(a1-3)]GlcNAc(b1-3)Gal(b1-4)[Fuc(a1-3)]GlcNAc
# Summary of the method: as §1
# [32] = biological target: Neu5Ac(a2-3)Gal(b1-4)[Fuc(a1-3)]GlcNAc(b1-3)GalNAc
# Summary of the method: as §1
# [33] = biological target: Neu5Ac(a2-3)Gal(b1-4)[Fuc(a1-3)]GlcNAc(b1-6)[Gal(b1-3)]GalNAc
# Summary of the method: as §1
# [34] = biological target: Neu5Ac(a2-3)Gal(b1-4)[Fuc(a1-3)]GlcNAc(b1-6)[Neu5Ac(a2-3)Gal(b1-3)]GalNAc
# Summary of the method: as §1
# [35] = biological target: Neu5Ac(a2-3)Gal(b1-4)[Fuc(a1-3)]GlcNAc6S
# Summary of the method: as §1
# [36] = biological target: Neu5Ac(a2-3)Gal6S(b1-4)GlcNAc
# Summary of the method: as §1
# [37] = biological target: Neu5Ac(a2-3)Gal6S(b1-4)[Fuc(a1-3)]GlcNAc
# Summary of the method: as §1
# Neu5Ac(a2-3)GalNAc = biological target: Neu5Ac(a2-3)GalNAc
# Summary of the method: as §1
binder,measurement,setting,value
B1,glycan array binding signal (z-score),[1],0.135
same,glycan array binding signal (z-score),[2],0.47
same,glycan array binding signal (z-score),[3],-0.213
same,glycan array binding signal (z-score),[4],-0.24
same,glycan array binding signal (z-score),[5],-0.21
same,glycan array binding signal (z-score),[6],-0.24
same,glycan array binding signal (z-score),[7],-0.237
same,glycan array binding signal (z-score),[8],-0.269
same,glycan array binding signal (z-score),[9],-0.056
same,glycan array binding signal (z-score),[10],-0.251
same,glycan array binding signal (z-score),[11],-0.185
same,glycan array binding signal (z-score),[12],-0.249
same,glycan array binding signal (z-score),[13],-0.084
same,glycan array binding signal (z-score),[14],-0.025
same,glycan array binding signal (z-score),[15],-0.216
same,glycan array binding signal (z-score),[16],-0.015
same,glycan array binding signal (z-score),[17],-0.241
same,glycan array binding signal (z-score),[18],-0.188
same,glycan array binding signal (z-score),[19],-0.254
same,glycan array binding signal (z-score),[20],-0.255
same,glycan array binding signal (z-score),[21],-0.208
same,glycan array binding signal (z-score),[22],-0.285
same,glycan array binding signal (z-score),[23],-0.272
same,glycan array binding signal (z-score),[24],-0.138
same,glycan array binding signal (z-score),[25],-0.061
same,glycan array binding signal (z-score),[26],-0.289
same,glycan array binding signal (z-score),[27],-0.199
same,glycan array binding signal (z-score),[28],-0.222
same,glycan array binding signal (z-score),[29],-0.196
same,glycan array binding signal (z-score),[30],0.018
same,glycan array binding signal (z-score),[31],-0.242
same,glycan array binding signal (z-score),[32],-0.101
same,glycan array binding signal (z-score),[33],-0.233
same,glycan array binding signal (z-score),[34],-0.17
same,glycan array binding signal (z-score),[35],-0.269
same,glycan array binding signal (z-score),[36],-0.213
same,glycan array binding signal (z-score),[37],-0.291
same,glycan array binding signal (z-score),Neu5Ac(a2-3)GalNAc,1.09
